Results from the RNAGym collection of RNA variant scans (doi:10.1073/pnas.2313332121).
Variants at the floor of the assay are shown more often than the library holds them.

B1: TPR 5TU (parent)
chain: GGAUCUUCUCGAUCUAACAAAAAAGACAAAUCUGCCACAAAGCUUGAGAGCAUCUUCGGAUGCAGAGGCGGCAGCCUUCGGUGGCGCGAUAGCGCCAACGUUCUCAACUAUGACACGCAAAACGCGUGCUCCGUUGAAUGGAGUUUAUCAUG

Variants of: B1
Assay: polymerase ribozyme fitness, log enrichment relative to wild type (log ratio); higher = more active; in vitro selection for triplet polymerase activity
Procedure, shortened: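 For each subunit of a heterodimeric triplet polymerase ribozyme, a mutant library was built by PCR and transcribed, then taken through a single in vitro selection round in triplicate. Selection involved annealing to a biotinylated primer, the partner subunit and triplets, incubation frozen at −7 °C, gel excision of extended constructs, capture on streptavidin beads and RT-PCR. Genotypes were retained after Illumina sequencing of inputs and outputs only with ≥10 input reads and ≥1 read in each output. Fitness is defined as the logarithm of a genotype's enrichment relative to wild-type enrichment, using inverse-variance-weighted averages across replicates, with the logarithm taken to base 2.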

Polymerase ribozyme fitness (log ratio), -1.58:
A21U G83C C95U

Polymerase ribozyme fitness (log ratio), -3.04:
A21U C85U G124A G126A G136A

Polymerase ribozyme fitness (log ratio), -0.324:
A22C A121U

Polymerase ribozyme fitness (log ratio), -4.03:
A21U C75G G86A U101C

Polymerase ribozyme fitness (log ratio), -1.29:
A21U G84U

Polymerase ribozyme fitness (log ratio), -4.07:
A21U C105G A113G C116U

Polymerase ribozyme fitness (log ratio), -1.6:
A21U C57U C93U C96A C116U

Polymerase ribozyme fitness (log ratio), -1.7:
A21U G58C A73G C85G

Polymerase ribozyme fitness (log ratio), -3.06:
A22C A52G A106C C118U A142G

Polymerase ribozyme fitness (log ratio), -2.01:
A21U C85A A97U

Polymerase ribozyme fitness (log ratio), -0.545:
A21U C63U G84A

Polymerase ribozyme fitness (log ratio), -3.58:
A21U C51U C93G C105U A120G

Polymerase ribozyme fitness (log ratio), -2.46:
A21U G34A G83C

Polymerase ribozyme fitness (log ratio), -3.29:
A21U C57U C93G

Polymerase ribozyme fitness (log ratio), -3.63:
A22C A41C G50A A115G

Polymerase ribozyme fitness (log ratio), -4.17:
A21U U56A G140A G141A

Polymerase ribozyme fitness (log ratio), -0.871:
A21U U56A C96U

Polymerase ribozyme fitness (log ratio), ≤ -4.2:
A21U A64C U145G
A21U A64U G81A G84C A115U C116G
A21U A73G C96U A115G U127A
A21U A73U A91U A97U
A21U A73U U90A
A21U A91G U139C
A21U A113C U127G C132U
A21U C27G C93U A138C A147C
A21U C27U A28U C57U
A21U C27U A41C A47G A49C U55A G86A
A21U C27U C43U G50U A52C C103A C123A U145C
A21U C32G C85A
A21U C32U G59C A91G C93A A107U
A21U C32U G86C C132A C149A
A21U C35G U82G A91G C99U C116A C118U C149U
A21U C35U G58A G68A A115G C118U
A21U C35U G58U C87G C105G C131A
A21U C36A G50U U55A C57G G62A G68U C85G C103A G128A
A21U C38A C57U U102G A119U
A21U C38U A52C C93U A106G U135G
A21U C43U C99G A120G G126U
A21U C43U G84A C87U G88A A119C C131A U145A
A21U C51U C76A C87U A138C
A21U C54A G68C C85U C103U A106U G133U
A21U C54U C85G A89U U90C A119U A122U C131A
A21U C57A G71A U90G C93G G136A U148C
A21U C57A G84A C85A C87A G94C C103A G152A
A21U C57G U77A A119U
A21U C72U U77G U82G G100C U135G
A21U C75A C76G A107U
A21U C76G
A21U C79U C93G
A21U C85U C96U C114G G140A
A21U C85U C131U U145G U151A
A21U C96U C108U C132A
A21U G25C U56A C85U C108A U134A
A21U G25U U31A C85A A97U A110G
A21U G25U U44A C54G G92C C132G A137C
A21U G34A A91G
A21U G34A C93U C99G C149G
A21U G34A G141A C149G
A21U G42A C85U C131U U135A G136C U148C U151G
A21U G42C G59C U61G G62C G67C C114A
A21U G42C G71A G81C C93U A106U C108U U144G
A21U G42C U44A U53A U55A C87U
A21U G46C A47U A52G U55A G58C C95U U134G C149U
A21U G50A C75U G81A G136U
A21U G50A G92C A97G C123A U134G
A21U G50C C95U A115U
A21U G50C G70U C93A
A21U G58C U61G A97U A120C C131G
A21U G65A G70A G86A A119C U127A U148G A150U
A21U G65C G68U C85G G92A G117A A138U
A21U G67A U102G G117A G124U
A21U G68U G86A G94U C108G G133A A138U
A21U G70C U139G
A21U G71A C95U A97C U144G
A21U G71U A91G U148C
A21U G83U G94C C99G
A21U G86C A97U C123U G133U
A21U G86U C93U G117U A137C
A21U G92A A115U G124U U144A
A21U G92A C116G C123G
A21U G92A U134A
A21U U31C G74U C87G G92A C105A C116A C118U U135G G141A
A21U U31G A52C G86A A106G G140C
A21U U31G C87A U102A G141A
A21U U33G C72A C95U A122U
A21U U33G G46A C79U G83A A107C G117A A142G
A21U U44A
A21U U44A C51U C57U G65A
A21U U44A C93G G94C
A21U U45G U55A A91U C125U C131G
A21U U53A C87U U145C U151A
A21U U55A C93G A97U A115U
A21U U55A C99G C108A G133U A142U
A21U U55G G70A C93A
A21U U56A C75A G94C G100A U127C U146A
A21U U61A G88A
A21U U77A U82G C96G U104G C105A C118U U139C
A21U U77G G88C A120G G128A
A21U U78G
A22C A23G A49C A66G A113U
A22C A23G C93G C149U
A22C A23G G62A A91G A98U C114A U146A
A22C A24C A41C A52C C85G G88U A89U
A22C A24G A52G G68U
A22C A24G C76G
A22C A24U G50C G58A C93U G94U
A22C A26C A49C U56A G59U G68U C85U G86U G94U A97G U134A
A22C A26G G50C C54U C75U G92A A150G
A22C A28G C43A A52C G80C U82A A98G C114U U135G G136A G141C U148G
A22C A28G G83A G141U
A22C A28G G88C G117C C149U
A22C A28U A52U G83C A91G A97C
A22C A28U G58A A66U C99U U104G
A22C A28U G58C A91C
A22C A28U G62A G65C U90A C99U C108U C116G
A22C A28U U33G C35A U56A G65C
A22C A29C C57U
A22C A29C C76U C95A A97U U148G
A22C A29U A41G G50C U77A C85U C93G G141C
A22C A29U A64U G70A G81A G84A
A22C A29U G58C C63U G124U U148C
A22C A39C U53A C69A G84U G126C
A22C A39C U55A U102G C129U
A22C A39U A40C A47G U56A C96U C125A
A22C A40G U44C C57G G68A U104A
A22C A40U A52C G81U A89U G92C G94A C95A A121U
A22C A47C A49C A52U G88U C118U
A22C A47C A73U G83U G84A C95U C103G C116U G140C
A22C A47U A52C A73U C87U U102G U104G
A22C A49C C125A
A22C A49C G58C G94C A98G C105G
A22C A49C G80C
A22C A52C U53A G71U C93G A115C
A22C A52C U56A A66G G83C G86U U102C U134A A137G
A22C A52G G71A C79G C87G C99G C114G U127G C129A A142C
A22C A66C C87G C99A A121G U127C
A22C A107U U111C G143C U151G
A22C C27G A66U U145C
A22C C27G C99U A106U G140U A147G
A22C C27G G94C
A22C C27U A29G C87U A97C A110C
A22C C27U G46A A107U G140C
A22C C32G C43G G92A C114U C118G U139A
A22C C32U C85G
A22C C32U C85G C95A G100A G112C
A22C C32U U53A C72G G83C G94A A106G G133C
A22C C35A A52U C57U G67U A91U A97C C118G
A22C C35A C57A A60U C93U A120U
A22C C35G U44A A60G C76A C95U G128A A150C U151G
A22C C35U G42C C57G C95A A97C U101G G152A
A22C C36A U56A A60C C87A
A22C C36U U61A C87U A97C C108U A121U A122U
A22C C38A U44G C75A G84A G117A U135A U151G
A22C C43A G46U C99A G140C
A22C C43U C75A C87U G128U
A22C C51A C93G A98C C116U U135C

Polymerase ribozyme fitness (log ratio), -0.249:
A21U G80A

Polymerase ribozyme fitness (log ratio), -2.65:
A21U G136U

Polymerase ribozyme fitness (log ratio), 0.17:
A21U U82C

Polymerase ribozyme fitness (log ratio), -2.85:
A21U A91G

Polymerase ribozyme fitness (log ratio), -4.06:
A21U U53A C57U G83A C95U

Polymerase ribozyme fitness (log ratio), -2.64:
A22C C27U A52C

Polymerase ribozyme fitness (log ratio), 0.375:
A21U C51U G126U

Polymerase ribozyme fitness (log ratio), 0.179:
A22C A60G C87U

Polymerase ribozyme fitness (log ratio), -0.0103:
A21U G50C C54U C63U G94A

Polymerase ribozyme fitness (log ratio), 0.187:
A21U G141C

Polymerase ribozyme fitness (log ratio), 0.99:
A21U G84A G141A
